Some of the results follow.

This note sets out measurements from the antibiotic and cytotoxicity screens of Wong et al. (2023).

One assay has as its system HSkMC. The assay can be described thus: cytotoxicity call (relative viability < 0.9). The settings on record: 10 µM.
The subject of another assay is S. aureus RN4220. The assay can be described thus: growth inhibition call (relative growth <= 0.2). The settings on record: 50 µM.

As for `COc1ccc(S(=O)(=O)N(C)C[C@H]2OCCCC[C@H](C)Oc3ccc(NC(=O)C4CCCCC4)cc3C(=O)N([C@@H](C)CO)C[C@@H]2C)cc1`, the cytotoxicity call in the assay on HSkMC is “inactive”. Besides, in the assay on S. aureus RN4220, the growth inhibition call is “inactive”.

For the compound `C[C@@H]1CN([C@@H](C)CO)C(=O)c2cccc(NS(=O)(=O)c3ccccc3)c2O[C@H]1CN(C)Cc1ccncc1`, the cytotoxicity call in the assay with HSkMC is “inactive”. Besides, in the assay with S. aureus RN4220, the growth inhibition call is “inactive”.

For `C[N+](C)(C)CCCC[C@@H]1NC(=O)[C@H]2C[C@@H](C(=O)NCc3ccc(F)cc3)[C@@H](c3ccc(O)cc3)N2C1=O`, the cytotoxicity call with HSkMC is “inactive”. For the same compound, the growth inhibition call in the assay on S. aureus RN4220 was “inactive”.

Consider `C[C@@H]1CN([C@@H](C)CO)C(=O)Cc2cc(NS(=O)(=O)c3ccc(Cl)cc3)ccc2O[C@H]1CN(C)Cc1ccc(Cl)c(Cl)c1`, for which the cytotoxicity call with HSkMC is “active”. For the same compound, in the assay with S. aureus RN4220, the growth inhibition call was “inactive”.

As for `Cc1ccc(S(=O)(=O)Nc2ccc3c(c2)C(=O)N([C@H](C)CO)C[C@H](C)[C@@H](CN(C)CC2CCCCC2)OCCCC[C@@H](C)O3)cc1`, in the assay on HSkMC, the cytotoxicity call was “inactive”. The growth inhibition call in the assay on S. aureus RN4220 was “inactive”.

`c1ncc(CC2CCNCC2)[nH]1`: the cytotoxicity call with HSkMC is “inactive”. Further, the growth inhibition call in the assay on S. aureus RN4220 is “inactive”.

For the compound `C[C@H]1CN([C@@H](C)CO)C(=O)CCCn2nncc2CO[C@@H]1CN(C)C(=O)CCCN(C)C`, the cytotoxicity call in the assay with HSkMC is “inactive”. Also, the growth inhibition call in the assay with S. aureus RN4220 was “inactive”.

On to `COc1cc(C)ccc1S(=O)(=O)N1[C@@H]2CC[C@@H](C2)[C@H]1c1nc2cccc(OCc3ccc(F)cc3)c2[nH]1`, for which the cytotoxicity call in the assay on HSkMC was “inactive”. For the same compound, in the assay with S. aureus RN4220, the growth inhibition call is “inactive”.

Take `CCc1oc(CC[C@@H](CO)NC(=O)NCCn2cc(C3(O)CCCCC3)nn2)c(C(=O)OC)c1C(=O)OC`: the cytotoxicity call in the assay with HSkMC was “inactive”. For the same compound, in the assay on S. aureus RN4220, the growth inhibition call was “inactive”.

Turning to `COc1ccc(CN(C)C[C@H]2OCCCC[C@H](C)Oc3ccc(NC(=O)Nc4ccc(F)cc4)cc3C(=O)N([C@H](C)CO)C[C@@H]2C)cc1`, the cytotoxicity call with HSkMC was “inactive”. Also, the growth inhibition call in the assay with S. aureus RN4220 is “inactive”.

Take `O=C(N[C@H]1C=C[C@@H](CC(=O)N2CCOCC2)O[C@@H]1CO)c1ccccn1`: the cytotoxicity call with HSkMC is “inactive”. In the assay on S. aureus RN4220, the growth inhibition call was “inactive”.

With `C[C@H](CO)N1C[C@H](C)[C@H](CN(C)Cc2ccc(C(=O)O)cc2)Oc2ccc(NS(C)(=O)=O)cc2C1=O`, the cytotoxicity call in the assay on HSkMC was “inactive”. Besides, the growth inhibition call with S. aureus RN4220 was “inactive”.

As for `C[C@H]1CN([C@@H](C)CO)C(=O)c2cc(NC(=O)Cc3cn(C)c4ccccc34)ccc2O[C@H]1CN(C)Cc1ccc(-c2ccccc2)cc1`, in the assay with HSkMC, the cytotoxicity call was “inactive”. The growth inhibition call with S. aureus RN4220 was “inactive”.

As to `C[C@@H]1CCCCO[C@@H](CN(C)S(=O)(=O)c2ccc(F)cc2)[C@H](C)CN([C@@H](C)CO)C(=O)c2cc(NC(=O)Cc3ccccc3)ccc2O1`, the cytotoxicity call in the assay with HSkMC was “inactive”. Also, in the assay with S. aureus RN4220, the growth inhibition call is “inactive”.

For `CC(C)NC(=O)N(C)C[C@H]1Oc2ccc(NC(=O)Cc3ccccc3)cc2C(=O)N([C@H](C)CO)C[C@H]1C`, the cytotoxicity call with HSkMC is “inactive”. Besides, the growth inhibition call with S. aureus RN4220 was “inactive”.

For `C[C@@H]1CN([C@H](C)CO)C(=O)c2c(c3ccccc3n2C)-c2ccccc2CO[C@@H]1CN(C)Cc1cccc2c1OCCCO2`, the cytotoxicity call with HSkMC is “inactive”. Besides, in the assay with S. aureus RN4220, the growth inhibition call was “inactive”.

On to `Cc1ccc(S(=O)(=O)Nc2ccc3c(c2)C(=O)N([C@H](C)CO)C[C@H](C)[C@H](CN(C)Cc2ccc4c(c2)OCO4)OCCCC[C@@H](C)O3)cc1`, for which, in the assay with HSkMC, the cytotoxicity call was “inactive”. Moreover, in the assay on S. aureus RN4220, the growth inhibition call is “inactive”.

With `Cn1c([N+](=O)[O-])cnc1COC(N)=O`, the cytotoxicity call with HSkMC is “inactive”. Also, the growth inhibition call in the assay on S. aureus RN4220 is “inactive”.

For `OCCN1CCN(c2ncnc3c2ncn3[C@H]2CN(Cc3cccc(C(F)(F)F)c3)C[C@@H](CO)O2)CC1`, in the assay on HSkMC, the cytotoxicity call is “inactive”. Besides, in the assay with S. aureus RN4220, the growth inhibition call was “inactive”.

Turning to `C[C@@H]1CN([C@@H](C)CO)C(=O)c2cccc(NS(=O)(=O)c3cn(C)cn3)c2O[C@@H]1CN(C)Cc1ccc(C(=O)Nc2ccccc2N)cc1`, the cytotoxicity call with HSkMC was “inactive”. Further, the growth inhibition call with S. aureus RN4220 was “inactive”.

Regarding `CC(C)NC(=O)Nc1ccc2c(c1)CC(=O)N([C@H](C)CO)C[C@H](C)[C@H](CN(C)S(=O)(=O)c1ccccc1)O2`, in the assay on HSkMC, the cytotoxicity call was “inactive”. The growth inhibition call in the assay on S. aureus RN4220 was “inactive”.

Turning to `Cc1noc(C)c1NC(=O)N[C@@H]1CC[C@H](CC(=O)NCCCN(C)C)O[C@H]1CO`, the cytotoxicity call in the assay on HSkMC was “inactive”. Also, in the assay with S. aureus RN4220, the growth inhibition call is “inactive”.

On to `CC1(C)[C@@H](O[C@H]2O[C@H](C(=O)O)[C@@H](O)[C@H](O)[C@H]2O[C@@H]2O[C@H](C(=O)O)[C@@H](O)[C@H](O)[C@H]2O)CC[C@]2(C)[C@H]3C(=O)C=C4[C@@H]5C[C@@](C)(C(=O)O)CC[C@]5(C)CC[C@@]4(C)[C@]3(C)CC[C@@H]12`, for which the cytotoxicity call in the assay on HSkMC was “inactive”. For the same compound, the growth inhibition call in the assay on S. aureus RN4220 was “inactive”.

For the compound `C[C@H](CO)N1C[C@H](C)[C@@H](CN(C)C(=O)Nc2ccc(F)cc2)OCCCC[C@H](C)Oc2ccc(NS(=O)(=O)c3ccc(Cl)cc3)cc2C1=O`, the cytotoxicity call with HSkMC is “inactive”. Also, in the assay on S. aureus RN4220, the growth inhibition call was “inactive”.

In the case of `COc1ccc(NC(=O)N(C)C[C@@H]2Oc3ccc(NS(=O)(=O)c4cn(C)cn4)cc3CC(=O)N([C@H](C)CO)C[C@H]2C)cc1`, in the assay with HSkMC, the cytotoxicity call was “inactive”. Further, the growth inhibition call in the assay on S. aureus RN4220 is “inactive”.

In the case of `C[C@@H]1CCCCO[C@@H](CN(C)C(=O)NC2CCCCC2)[C@@H](C)CN([C@@H](C)CO)C(=O)c2cc(NC(=O)Nc3ccc4c(c3)OCO4)ccc2O1`, in the assay on HSkMC, the cytotoxicity call was “inactive”. In addition, the growth inhibition call in the assay with S. aureus RN4220 is “inactive”.

On to `C[C@@H]1CCCCO[C@@H](CN(C)S(=O)(=O)c2cccs2)[C@H](C)CN([C@@H](C)CO)C(=O)c2cc(NC(=O)Nc3ccccc3)ccc2O1`, for which, in the assay on HSkMC, the cytotoxicity call was “inactive”. Moreover, the growth inhibition call in the assay on S. aureus RN4220 was “inactive”.

Turning to `C[C@@H]1CCCCO[C@H](CN(C)C(=O)C2CCCCC2)[C@@H](C)CN([C@@H](C)CO)C(=O)c2cc(NC(=O)NC3CCCCC3)ccc2O1`, in the assay with HSkMC, the cytotoxicity call was “inactive”. Also, the growth inhibition call in the assay with S. aureus RN4220 is “inactive”.

Consider `COc1cc(F)c(C(C)C)cc1-c1ccc(C(F)(F)F)cc1CN1C(=O)O[C@H](c2cc(C(F)(F)F)cc(C(F)(F)F)c2)[C@@H]1C`, for which, in the assay with HSkMC, the cytotoxicity call was “inactive”. Moreover, in the assay with S. aureus RN4220, the growth inhibition call is “inactive”.

`C[C@H]1CCCCO[C@@H](CN(C)C(=O)NC2CCCCC2)[C@@H](C)CN([C@@H](C)CO)C(=O)c2cc(NC(=O)NC3CCCCC3)ccc2O1`: the cytotoxicity call with HSkMC is “inactive”. The growth inhibition call in the assay with S. aureus RN4220 is “inactive”.

Take `C[C@H](CO)N1C[C@H](C)[C@H](CN(C)C(=O)Nc2cccc3ccccc23)Oc2ncc(C#Cc3cccc(F)c3)cc2C1=O`: the cytotoxicity call in the assay on HSkMC was “inactive”. Besides, the growth inhibition call in the assay with S. aureus RN4220 is “inactive”.

With `C[C@@H]1CN([C@@H](C)CO)S(=O)(=O)c2ccc(Br)cc2O[C@H]1CN(C)Cc1ccccc1F`, in the assay on HSkMC, the cytotoxicity call is “inactive”. Further, the growth inhibition call with S. aureus RN4220 was “inactive”.

In the case of `C[C@@H]1CN([C@H](C)CO)C(=O)c2cc(NC(=O)Nc3cccc4ccccc34)ccc2O[C@@H](C)CCCCO[C@@H]1CN(C)S(=O)(=O)c1cn(C)cn1`, the cytotoxicity call in the assay on HSkMC was “inactive”. The growth inhibition call in the assay on S. aureus RN4220 was “inactive”.

For the compound `COc1ccccc1CNC(=O)C[C@@H]1C[C@H]2c3cc(NS(=O)(=O)c4ccc(F)cc4)ccc3O[C@H]2[C@@H](CO)O1`, the cytotoxicity call with HSkMC was “inactive”. In the assay with S. aureus RN4220, the growth inhibition call was “inactive”.

Regarding `O=C(OC1Cc2c(O)cc(O)cc2OC1c1ccc(O)c(O)c1)c1cc(O)c(O)c(O)c1` (stereo not drawn), the cytotoxicity call with HSkMC was “inactive”. In the assay with S. aureus RN4220, the growth inhibition call was “inactive”.

For `C[C@H](CO)N1C[C@H](C)[C@H](CN(C)C(=O)c2ccccc2)OCCCC[C@H](C)Oc2ccc(NC(=O)c3ccccc3)cc2C1=O`, the cytotoxicity call in the assay with HSkMC was “inactive”. The growth inhibition call in the assay on S. aureus RN4220 was “inactive”.

Regarding `O=C(C[C@@H]1C[C@@H]2c3cc(NC(=O)Nc4ccc(C(F)(F)F)cc4)ccc3O[C@@H]2[C@@H](CO)O1)NC1CCCCC1`, in the assay on HSkMC, the cytotoxicity call was “inactive”. Moreover, the growth inhibition call in the assay on S. aureus RN4220 is “inactive”.

`C[C@H](CO)N1C[C@H](C)[C@@H](CN(C)C(=O)Nc2ccccc2)OCCCC[C@H](C)Oc2ccc(NS(=O)(=O)c3ccc(F)cc3)cc2C1=O`: the cytotoxicity call with HSkMC is “inactive”. In addition, the growth inhibition call with S. aureus RN4220 was “inactive”.

With `CN(C)CCOC(c1ccccc1)c1ccccc1.Cl`, the cytotoxicity call in the assay on HSkMC (human skeletal muscle cells) was “inactive”. In the assay on S. aureus RN4220, the growth inhibition call is “inactive”.
